{
  "source": "PubChem BioAssay AID504832",
  "about": "(National Center for Advancing Translational Sciences (NCATS), 2011)",
  "note": "The campaign covered roughly 310,000 compounds. About 18,000 (5.8%) were called active. Inconclusive results, whose numbers are uncertain, are shown with a selection of clear calls. Calls follow the shape of the dose curve; as a rule, active = well fitted inhibition curve with a large enough effect; inconclusive = small, poorly fitted or top-dose-only effect, or another doubt; inactive = no such curve, though single readings can be large or run the other way. No potency is given beside an inconclusive call; the fits are too rough. Potency is read from the fitted curve at half-maximal effect; tags tell the direction and shape of the fitted curve.",
  "data": [
    {"test": "Primary qHTS for delayed death inhibitors of the malarial parasite plastid, 48 hour incubation", "conditions": "P. falciparum luciferase growth in erythrocytes; series mostly up to 28.7 µM", "outline": "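Cell-based growth assay: transgenic P. falciparum expressing firefly luciferase, cultured in red cells within RPMI 1640 containing 0.5% w/v Albumax, 24 mM bicarbonate and gentamycin. A drop in luciferase activity indicates inhibition.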", "values": [
      {"smiles": "Cc1ccc(C)c(Cn2c(C)nc3c(sc(=S)n3-c3ccccc3)c2=O)c1", "Potency": "inactive"},
      {"smiles": "Cc1cc(Cl)c(OCCCNC2CCCC2)c(Br)c1", "Potency": "inconclusive [inhibitor, single point]"},
      {"smiles": "CC(C)CNC(=S)N1CCC(NC(=O)C23CC4CC(CC(C4)C2)C3)CC1", "Potency": "inconclusive [inhibitor, partial curve]"},
      {"smiles": "O=C(c1ccco1)N1CCCC(c2nc3c(nnn3Cc3cccc(Cl)c3)c(=O)[nH]2)C1", "note": "(configuration not stated)", "Potency": "inconclusive [inhibitor, partial curve]"},
      {"smiles": "CN1Cc2sc(N)c(C#N)c2CC1(C)C", "Potency": "inconclusive [inhibitor, single point]"},
      {"smiles": "Cc1cccc(CNc2ccc(C(CC(N)=O)NC(=O)c3cccc(Br)c3)cc2[N+](=O)[O-])c1", "note": "(configuration not stated)", "Potency": "inactive"},
      {"smiles": "Cc1cc(NC(=O)Nc2cccc(C(F)(F)F)c2)no1", "Potency": "inconclusive [inhibitor, single point]"},
      {"smiles": "Cc1ccc(C(=O)NC(=S)Nc2ccc(N3CCN(C(=O)c4ccco4)CC3)cc2)cc1", "Potency": "inconclusive [inhibitor, full curve]"},
      {"smiles": "CCOc1ccc(-n2c(O)c(C=Nc3ccc(N(CC)CC)cc3)c(=O)[nH]c2=O)cc1", "Potency": "inconclusive [inhibitor, partial curve, poor fit]"},
      {"smiles": "C[C@@H]1CN(CCCn2c3ccccc3c3ccccc32)C[C@H](C)N1", "Potency": "active: 8.49 µM"},
      {"smiles": "O=[N+]([O-])c1cccc(-n2cccc2/C=N/Nc2nc(N3CCCCC3)nc(N3CCCCC3)n2)c1", "Potency": "inconclusive [inhibitor, single point]"},
      {"smiles": "O=C(N/N=C\\c1ccccn1)C1COc2cc3ccccc3cc2O1", "note": "(configuration not stated)", "Potency": "inconclusive [inhibitor, single point]"},
      {"smiles": "CCC1Nc2ncnc(N3CCOCC3)c2N(Cc2ccc(C)cc2)C1=O", "note": "(configuration not stated)", "Potency": "inconclusive [inhibitor, single point]"},
      {"smiles": "COC(=O)C1CN(C(=O)COc2ccc(Cl)cc2C)c2ccccc2O1", "note": "(configuration not stated)", "Potency": "active: 14.7 µM"},
      {"smiles": "O=C(NCc1cccs1)C(=O)NCC1OCCCN1S(=O)(=O)c1cc(F)ccc1F", "note": "(configuration not stated)", "Potency": "inconclusive [inhibitor, partial curve, poor fit]"},
      {"smiles": "CC1(C)Cc2c(cnn2-c2ccc(F)cc2)C(NC(=O)C2CCC2)C1", "note": "(configuration not stated)", "Potency": "inconclusive [inhibitor, partial curve]"},
      {"smiles": "CCOC(=O)c1sc2nc(C)nc(NCc3ccccc3OC)c2c1C", "Potency": "inconclusive [inhibitor, single point]"},
      {"smiles": "COc1ccc2nc(Nc3nc(C)c(C(C)=O)s3)sc2c1", "Potency": "inconclusive [inhibitor, single point]"},
      {"smiles": "CN(c1cccc(Cl)c1)S(=O)(=O)c1cccc(C(=O)NC2=NCCS2)c1", "Potency": "inconclusive [inhibitor, full curve]"},
      {"smiles": "COc1cccc(CNC(=O)C2CCN(Cc3cnn(-c4ccccc4)c3-n3cccc3)CC2)c1", "Potency": "inconclusive [inhibitor, partial curve]"},
      {"smiles": "COc1ccc(N2CCN(CC(=O)c3c(C)n(C)c4ccc(OC)cc34)CC2)cc1", "Potency": "inconclusive [inhibitor, single point]"},
      {"smiles": "CCOc1cc(N2CCOCC2)c(OCC)cc1NC(=O)COC(=O)c1ccc(Cl)cc1N", "Potency": "inconclusive [inhibitor, partial curve]"},
      {"smiles": "O=C(NC1CCCC1)C(c1ccncc1)N(Cc1cccs1)C(=O)c1csnn1", "note": "(configuration not stated)", "Potency": "inconclusive [inhibitor, partial curve, poor fit]"},
      {"smiles": "O=C(CN1C(=O)/C(=C/c2ccco2)SC1=S)NC1CCS(=O)(=O)C1", "note": "(configuration not stated)", "Potency": "inactive"},
      {"smiles": "COc1ccc(-c2cc(-c3nnc(COC(=O)CC4CC5CCC4C5)o3)c3ccccc3n2)cc1OC", "note": "(configuration not stated)", "Potency": "active: 9.28 µM"},
      {"smiles": "Cc1cccn2c(=O)c3c(nc12)N1CCc2ccccc2C1C1(C3)C(=O)NC(=O)N(C)C1=O", "note": "(configuration not stated)", "Potency": "active: 13.1 µM"},
      {"smiles": "CCOc1cc(C(=O)N=c2sccn2C)cc(Br)c1OC", "Potency": "inconclusive [inhibitor, partial curve]"},
      {"smiles": "CNC(=S)N(CCc1ccccc1)Cc1cc2cc(OC)c(OC)cc2[nH]c1=O", "Potency": "inconclusive [inhibitor, partial curve, poor fit]"},
      {"smiles": "CC(C)CC(=O)Nc1ccc2c(c1)nc(CCN1CCCCC1)n2C", "Potency": "inconclusive [inhibitor, single point]"},
      {"smiles": "COc1ccc(/C=C/C(=O)c2sc(-c3ccc(Cl)cc3)nc2C)cc1", "Potency": "inconclusive [inhibitor, partial curve, poor fit]"},
      {"smiles": "COc1cc(OC)cc(C(=O)N[C@H](C(=O)Nc2nc3ccccc3[nH]2)C(C)C)c1", "Potency": "inconclusive [inhibitor, partial curve]"},
      {"smiles": "CCn1c(Cl)c(C=O)s/c1=N\\S(=O)(=O)c1ccccc1", "Potency": "inconclusive [inhibitor, full curve, poor fit]"},
      {"smiles": "Cc1ccc(S(=O)(=O)N(C)CC(=O)N2CCCCCC2)cc1", "Potency": "inactive"},
      {"smiles": "O=C(COc1ccccc1)Nc1ccccc1F", "Potency": "inactive"},
      {"smiles": "N#CC1=C(N)C(C#N)(C#N)C(c2ccc[nH]2)C2CCCC=C12", "note": "(configuration not stated)", "Potency": "inconclusive [inhibitor, partial curve]"},
      {"smiles": "CCCc1c(C)nc(N2CCN(c3ccccc3F)CC2)[nH]c1=O", "Potency": "inactive"},
      {"smiles": "CC1(C)Cc2c(sc(NC(=O)COc3cccc4ccccc34)c2C#N)C(C)(C)N1", "Potency": "inconclusive [inhibitor, single point]"},
      {"smiles": "O=C(Nc1cc(Br)ccc1O)c1cc(-c2ccco2)on1", "Potency": "inconclusive [inhibitor, full curve]"},
      {"smiles": "Cc1ccc(-c2nnc(N3CCN(C(=O)c4ccco4)CC3)c3ccccc23)cc1", "Potency": "inconclusive [inhibitor, partial curve, poor fit]"},
      {"smiles": "Cc1cc2c(c(=O)n1Cc1ccccc1)C1O[C@](c3ccsc3)(Cc3cc(C#N)ccc31)O2", "Potency": "active: 1.69 µM"},
      {"smiles": "CC(C)(C)CC(=O)Nc1ccccc1N1CCN(c2ccc(F)cc2)CC1", "Potency": "inconclusive [inhibitor, single point]"},
      {"smiles": "COc1ccc(C2CC(c3cccs3)=NN2C(=O)CSc2nc(=O)n3ccc(C)cc3n2)cc1", "note": "(configuration not stated)", "Potency": "active: 11.7 µM"},
      {"smiles": "C/C=C/C(=O)Nc1cccc(C2=NOC3(C2)C[C@H](C(N)=O)N(C(=O)c2ccccc2C(=O)c2ccccc2)C3)c1", "note": "(some centres not stated)", "Potency": "active: 9.28 µM"},
      {"smiles": "CCc1ccc(NC(=O)c2c(Cl)nc(C)c(Cl)c2C)cc1", "Potency": "inconclusive [inhibitor, partial curve]"},
      {"smiles": "Cc1cccc(NC(=O)C2CC(=O)n3cnnc3S2)c1", "note": "(configuration not stated)", "Potency": "inactive"},
      {"smiles": "COc1ccc(-n2nc(C)cc2N)cc1", "Potency": "inactive"},
      {"smiles": "O=C(NCC(c1ccco1)N1CCCCC1)c1ccc(NS(=O)(=O)c2ccc(F)cc2)cc1", "note": "(configuration not stated)", "Potency": "inconclusive [inhibitor, single point]"},
      {"smiles": "CC(=O)Nc1ccccc1C(=O)N1CCN(c2cccc(C)c2C)CC1", "Potency": "inconclusive [inhibitor, partial curve, poor fit]"},
      {"smiles": "CC(C)CNC(=S)N(CCO)Cc1cc2cc3c(cc2[nH]c1=O)OCO3", "Potency": "inactive"},
      {"smiles": "CCSC1=N/C(=C\\c2ccc(OC)cc2)C(=O)N1", "Potency": "inactive"},
      {"smiles": "CCN(CC)S(=O)(=O)c1ccc(N2CCCC2)c(NC(=O)c2c(-c3ccccc3)noc2C)c1", "Potency": "inconclusive [inhibitor, partial curve, poor fit]"},
      {"smiles": "COc1ccc(NC(=O)CN2CCN(S(=O)(=O)N(C)C)CC2)cc1", "Potency": "inactive"},
      {"smiles": "CCOC(=O)c1c(C)[nH]c(C)c1S(=O)(=O)NCCN1CCN(c2cc(Cl)ccc2C)CC1", "Potency": "inconclusive [inhibitor, partial curve]"},
      {"smiles": "Cc1nn(Cc2ccc(C(=O)N3CCN(C(=O)c4ccco4)CC3)o2)c(C)c1[N+](=O)[O-]", "Potency": "inconclusive [inhibitor, full curve, poor fit]"},
      {"smiles": "N#CC1C(C#N)N2CCCN2C1c1ccc(Cl)cc1", "note": "(configuration not stated)", "Potency": "inactive"},
      {"smiles": "Cc1cn(C)c(=O)n(C)c1=O", "Potency": "inconclusive [inhibitor, partial curve, poor fit]"},
      {"smiles": "Cc1cccc(NC(=O)c2cc(=O)n(Cc3ccccc3)c(=O)[nH]2)c1", "Potency": "inconclusive [inhibitor, full curve, poor fit]"},
      {"smiles": "CCN(CC)CCN1C(=O)c2ccccc2NC1c1ccc(F)cc1", "note": "(configuration not stated)", "Potency": "inconclusive [inhibitor, full curve]"},
      {"smiles": "Cc1ccc(OCCN(C)C(=O)c2cc(COc3ccc(F)cc3F)on2)cc1", "Potency": "inactive"},
      {"smiles": "COc1cccc(-c2cc(C(=O)N3CC4(C)CC3CC(C)(C)C4)no2)c1", "note": "(configuration not stated)", "Potency": "inconclusive [inhibitor, full curve, poor fit]"},
      {"smiles": "Cc1c(Cc2c(Cl)cccc2Cl)c(=O)ccn1C(C)c1ccccc1", "note": "(configuration not stated)", "Potency": "inconclusive [inhibitor, partial curve, poor fit]"},
      {"smiles": "Cc1cccc(N=Nc2c(C)c(C#N)c(O)[nH]c2=O)c1", "Potency": "inactive"},
      {"smiles": "CCOc1cc2[nH]c(=O)n(Cc3ccc(C(=O)NCCCN4CCC(C)CC4)cc3)c(=O)c2cc1OCC", "Potency": "inconclusive [inhibitor, single point]"},
      {"smiles": "COc1ccc(/C=N\\NC(=O)C2=NNC(=O)C2C)cc1", "note": "(configuration not stated)", "Potency": "inactive"},
      {"smiles": "Cc1cc(C)c(C(=O)NC2CC(C)(C)Cc3c2cnn3-c2cccc(F)c2)[nH]1", "note": "(configuration not stated)", "Potency": "inconclusive [inhibitor, single point]"},
      {"smiles": "CC(=O)c1ccc(C(=O)Nc2ccc(N3CCOCC3)cc2)cc1", "Potency": "inactive"},
      {"smiles": "COc1cc(/C=C/C(=O)OCC(=O)NCc2ccco2)ccc1O", "Potency": "inconclusive [inhibitor, single point]"}
    ]}
  ]
}
